Screen size: about 45,000 compounds; about 200 (0.44%) were called active. About 7% were inconclusive and are not listed. Calls follow the shape of the dose curve; as a rule, active = well fitted activation curve with a large enough effect; inconclusive = small, poorly fitted or top-dose-only effect; inactive = no such curve, though single readings can be large or run the other way. Some of the results follow.

The experiment can be described thus: qHTS of TDP-43 Inhibitors: NCGC Sytravon Library Screen. Also: 0% is about no effect; nearly all actives have a fitted effect of over 55% in size. The settings on record: yeast TDP-43 toxicity rescue, BacTiter-Glo growth, 24 h; series mostly up to 46.1 µM; growth rescue (activation): at the top concentration. Put shortly: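 TDP-43-expressing yeast, pregrown in raffinose, seeded at OD600 0.02 in galactose medium with compound for 24 hr at 30 deg C. Growth read by BacTiter-Glo luminescence, so rescue of toxicity appears as activation.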
A general note: Quantitative high-throughput screening tests each substance at several concentrations.
As to `CSc1ccccc1OCc1cc(C(=O)NC2CCOC(C)(C)C2)no1` (stereo not given), the “growth rescue (activation)” value was inactive: 6.28%.
To `COc1cc(C2CC(=O)Oc3c2c(=O)n(C)c2ccccc32)ccc1O` (stereo not given) belongs inactive: -2.72%; to `COC(=O)c1c(NC(=O)CSc2nc3nc(C)cc(C)n3n2)sc(C)c1C`, inactive: -10.1%; to `O=C(NCc1ccccc1Cl)c1csc([C@@H]2O[C@H](CO)[C@H](O)[C@H](O)[C@H]2O)n1`, inactive: -1.81%.
The same measure for `CN(Cc1nccn1C)C(=O)CC1C(=O)NCCN1Cc1ccccc1C(F)(F)F` (stereo not given): inactive: 8.59%; for `COc1ccc(C(O)c2nc(-c3cccc(CO)c3)cs2)cc1` (stereo not given): inactive: 7.02%.
For `COCc1c(C(=O)OCC(=O)c2ccc[nH]2)oc2ccccc12`, the “growth rescue (activation)” value is inactive: 5.15%.
The same measure for `O=C(Nc1ccccc1OC(F)F)c1ccc(S(=O)(=O)N2CCOCC2)cc1`: inactive: 13%.
The same measure for `COc1cc(/C=C(\C#N)c2nc3ccccc3[nH]2)cc(OC)c1O`: inactive: 17.8%; for `Cc1cc(NC(=O)CSc2ccccn2)no1`: inactive: 3.79%; for `O=C(NCc1ccco1)/C(=C/c1ccco1)NC(=O)c1ccco1`: inactive: -5.42%.
For the compound `CC(C)CC1NC(=O)N(CC(=O)Nc2ccc3c(c2)CCC3)C1=O` (stereo not given), the “growth rescue (activation)” value is inactive: -1.48%.
To `CCN(CC(=O)NCc1ccc(F)cc1)C(=O)/C=C/c1cc(OC)ccc1OC` belongs inactive: 12.2%; to `COc1ccc(Br)c(C(=O)NCC2CCCCC2)c1`, inactive: 24%.
The same measure for `Cc1ccc(SCC(=O)NC2CCS(=O)(=O)C2)cc1` (stereo not given): inactive: -5.08%; for `COc1cc(-c2cc(C(=O)NCCc3ccc(S(N)(=O)=O)cc3)c3ccccc3n2)cc(OC)c1OC`: inactive: -6.68%.
To `CSc1nc(-c2ccco2)nn1C(=O)c1cccs1` belongs inactive: 17.5%; to `NS(=O)(=O)c1ccc(CCNC(=O)CSc2cccs2)cc1`, inactive: -3.24%.
`CC(=O)c1ccc(NC(=O)COC(=O)/C=C/c2cccs2)cc1`: the “growth rescue (activation)” value is inactive: 43.6%.
For the compound `Cc1ccc(/C=N/Nc2cccc(C(=O)O)c2)s1`, the “growth rescue (activation)” value was inactive: 16%.
The same measure for `COC(=O)Cn1cc(/C=N/NC(=O)COc2cccc3cccnc23)c2ccccc21`: inactive: 22.3%; for `NS(=O)(=O)c1ccc(CCNC(=O)CSc2nc3ccccc3c3nc(CCN4CCCCC4)nn23)cc1`: inactive: -1.47%.
With `COCCNc1nnc(Cc2ccc(OC)c(OC)c2)c(=O)[nH]1`, the “growth rescue (activation)” value is inactive: -7%.
The same measure for `Cc1ccc(C(=O)OCC(=O)N(C)c2ccccc2)cc1C`: inactive: -10.8%; for `CCOC(=O)CC1C(=O)NCCN1C(=O)c1ccc(F)cc1F` (stereo not given): inactive: 16.5%.
To `CCCn1ncc(CN2CCN(Cc3ccc(C)o3)C(CCO)C2)c1C` (stereo not given) belongs inactive: 18.9%.
The same measure for `Cc1ccccc1CC1(CO)CCCN(Cc2cn[nH]c2-c2ccccc2)C1` (stereo not given): inactive: 5.74%; for `CC12CN(C(=S)Nc3ccccc3)CC(C)(CN(C(=S)Nc3ccccc3)C1)C2=O`: inactive: 13.7%; for `O=C(NCc1ccc(Cl)cc1)c1cc(=O)[nH]c2ccc(S(=O)(=O)N3CCOCC3)cc12`: inactive: 19%.
Take `O=C(O)c1ccc(Cl)c(NCc2cccnc2)c1`: the “growth rescue (activation)” value is inactive: -1.11%.
To `Cc1cccn2c(=O)c3cc(S(=O)(=O)c4ccc(F)cc4)c(=N)n(Cc4ccco4)c3nc12` belongs inactive: -0.041%; to `Cc1nnc(SCC(=O)NCc2ccc3c(c2)OCO3)n1C`, inactive: -0.0686%.
The same measure for `CC(=O)c1cccc(NC(=O)c2ccc(NC(=O)CCS(=O)(=O)c3cccs3)cc2)c1`: inactive: 5.07%.
The same measure for `CCN(CC)S(=O)(=O)c1ccc(NC(=O)COC(=O)c2cnc(C)cn2)cc1`: inactive: 3.03%; for `C=CCN(CC(=O)NC1CCS(=O)(=O)C1)S(=O)(=O)c1ccccc1C(F)(F)F` (stereo not given): inactive: 4.87%; for `Fc1cccc(COc2ccccc2CNc2ccccc2)c1`: inactive: 25.2%.
For the compound `N#C/C(=C(/O)c1ccco1)c1nc2ccccc2[nH]1`, the “growth rescue (activation)” value was inactive: 2.86%.
To `CC(C)(C)OC(=O)NCCC(=O)N/N=C/c1cccc2cccnc12` belongs inactive: 0.836%.
On to `O=C(/C=C/c1cccc(F)c1)N1CCN(c2ccccn2)CC1`, for which the “growth rescue (activation)” value is inactive: 3.7%.
To `COc1ccc(C2=NN(CC(=O)Nc3ccccc3C)C(=O)CC2)cc1` belongs inactive: 36.2%; to `COc1ccc(CCN(C)C2CCCN(C(=O)Cn3cnnn3)C2)cc1OC` (stereo not given), inactive: 2.83%.
To `CC(C)C1N(C(=O)N(C)C)CCN1S(=O)(=O)c1ccccc1` (stereo not given) belongs inactive: 15.2%; to `O=C(Nc1nncs1)C12CC3CC(CC(C3)C1)C2`, inactive: 21.7%; to `Cc1ccc2nsnc2c1NC(=O)c1sc2ccccc2c1Cl`, inactive: 14.9%.
The same measure for `CC(C)CNC(=O)c1cccc(NC(=O)CSc2ccc(Cl)cc2)c1`: inactive: 27.9%; for `CCc1ccc(NC(=O)N[C@H](C(=O)O)C(C)CC)cc1` (stereo not given in full): inactive: 18.8%; for `O=C(Cc1ccc([N+](=O)[O-])cc1)NCc1ccccn1`: inactive: 1.45%.
Take `CS(=O)(=O)N1CCN(c2ccnc3cc(Cl)ccc23)CC1`: the “growth rescue (activation)” value is inactive: -32.3%.
On to `CCOC(=O)C(CC(=O)Nc1nc(C(C)=O)c(C)s1)C(C)c1ccccc1` (stereo not given), for which the “growth rescue (activation)” value was inactive: 17.2%.
Turning to `COCC(C)NC(=O)c1cc(OC)cc(OC)c1` (stereo not given), the “growth rescue (activation)” value is inactive: -7.62%.
The same measure for `Cc1oc(-c2cccs2)nc1CN1CCN(C(C)C)C(CCO)C1` (stereo not given): inactive: 17.2%; for `NS(=O)(=O)c1ccc(CCNC(=O)c2cc([N+](=O)[O-])ccc2N2CCCCC2)cc1`: inactive: 14.8%; for `CNC(=O)CN(c1cc([N+](=O)[O-])ccc1OC)S(C)(=O)=O`: inactive: -9.44%.
The same measure for `Nc1nc(-c2ccc(-c3ccccc3)cc2)cs1`: inactive: -33%; for `Cc1nn(C)cc1C(=O)/C=C/c1ccc([N+](=O)[O-])cc1`: inactive: 10.4%.
To `C/C(=N\Nc1ccc(Cl)c(C(=O)O)c1)c1ccc[nH]1` belongs inactive: -2.96%; to `O=C(CSc1ncnc2sccc12)NC1CCS(=O)(=O)C1` (stereo not given), inactive: -3.71%; to `CC(C)C(=O)NNS(=O)(=O)c1ccccc1[N+](=O)[O-]`, inactive: 4.8%.
For `CN(C)c1ccc(C(O)P(=O)(OCc2ccccc2)c2ccc(N(C)C)cc2)cc1` (stereo not given), the “growth rescue (activation)” value is inactive: -9.39%.
For the compound `O=C(c1ccc(Cl)c([N+](=O)[O-])c1)N1CCN(c2ccccc2)CC1`, the “growth rescue (activation)” value was inactive: -43.8%.
The same measure for `COc1ccc(-n2nc(C(=O)NCC(=O)N3CCC(C(N)=O)CC3)c3ccccc3c2=O)cc1`: inactive: 2.71%; for `CC(NC(=O)c1cc(=O)[nH]c2ccccc12)c1ccc(F)cc1F` (stereo not given): inactive: -5.75%; for `Cc1cccc(-c2ccc(NC(=O)C3CCN(CC4CC4)CC3)cc2)c1`: inactive: 11.8%.
The same measure for `Cc1cccc(S(=O)(=O)NC(=O)C2(C)CCN2C(=O)c2cccc(F)c2)c1` (stereo not given): inactive: -3.89%; for `CCCC(CCC(=O)Nc1ccn(-c2ccccc2)n1)C(=O)O` (stereo not given): inactive: -14.4%; for `CCOP(=O)(c1ccccc1)C(O)c1ccc(Br)cc1` (stereo not given): inactive: 4.41%.
For the compound `CC1(c2ccc(Cl)c(Cl)c2)NC(=S)N2C1NC(=S)N2c1ccccc1` (stereo not given), the “growth rescue (activation)” value is inactive: 24%.
To `CC[n+]1c(/C=C/c2ccc(N(C)C)cc2)ccc2ccccc21` belongs inactive: -49.8%.
For `Cc1ccccc1NC(=O)C(=O)NCCCN1CCOCC1`, the “growth rescue (activation)” value was inactive: 1.79%.
The same measure for `COc1ccc(-c2cc(C(=O)Nc3cccnc3Cl)no2)cc1OC`: inactive: -6.44%.

Values taken from PubChem BioAssay AID1347073 (National Center for Advancing Translational Sciences (NCATS), 2019).
